{"source": "patent US20250250313A1", "about": "(REMEGEN, published 2025)", "binders": {"B1": {"name": "Molecule N1 (Fc fusion)", "chain": "ITCPPPMSVEHADIWVKSYSLYSRERYICNSGFKRKAGTSSLTECVLNKATNVAHWTTPSLKCIRDPALVHQRPAPPSNVTESGCKECEELEEKNIKEFLQSFVHIVQMFINTSGGGGSNWVNVISDLKKIEDLIQSMHIDATLYTESDVHPSCKVTAMKCFLLELQVISLESGDASIHDTVENLIILANNSLSSNGGGGGS[letters of human IgG1 Fc omitted]", "notes": "Single-chain IL-15Rα sushi / IL-15 C-term / IL-15 N-term / IgG1 Fc fusion, expressed in HEK293T cells; also called IL15Rα-L/IL15 DS1"}, "B2": {"name": "Molecule O1 (Fc fusion)", "chain": "ITCPPPMSVEHADIWVKSYSLYSRERYICNSGFKRKAGTSSLTECVLNKATNVAHWTTPSLKCIRDPALVHQRPAPPSNVTESGCKECEELEEKNIKEFLQSFVHIVQMFINTSGGGGSNWVNVISDLKKIEDLIQSMHIDATLYTESDVHPSCKVTAMKCFLLELQVISLESGDASIHDTVENLIILANNSLSSNGGGGGS[letters of human IgG1 Fc with changes omitted]", "notes": "also called Molecule N1 w/ EFL1"}, "B3": {"name": "Molecule P1 (Fc fusion)", "chain": "ITCPPPMSVEHADIWVKSYSLYSRERYICNSGFKRKAGTSSLTECVLNKATNVAHWTTPSLKCIRDPANVTESGCKECEELEEKNIKEFLQSFVHIVQMFINTSGGGGSNWVNVISDLKKIEDLIQSMHIDATLYTESDVHPSCKVTAMKCFLLELQVISLESGDASIHDTVENLIILANNSLSSNGGGGGS[letters of human IgG1 Fc omitted]", "notes": "also called IL15Rα-S/IL15 DS1"}, "B4": {"name": "Molecule Q1 (Fc fusion)", "chain": "ITCPPPMSVEHADIWVKSYSLYSRERYICNSGFKRKAGTSSLTECVLNKATNVAHWTTPSLKCIRDPALVHQRPAPPSTESGCKECEELEEKNIKEFLQSFVHIVQMFINTSGGGGSNWVNVISDLKKIEDLIQSMHIDATLYTESDVHPSCKVTAMKCFLLELQVISLESGDASIHDTVENLIILANNSLSSNGNVGGGGS[letters of human IgG1 Fc omitted]", "notes": "also called IL15Rα-L/IL15 DS2"}, "B5": {"name": "Molecule R1 (Fc fusion)", "chain": "ITCPPPMSVEHADIWVKSYSLYSRERYICNSGFKRKAGTSSLTECVLNKATNVAHWTTPSLKCIRDPALVHQRTESGCKECEELEEKNIKEFLQSFVHIVQMFINTSGGGGSNWVNVISDLKKIEDLIQSMHIDATLYTESDVHPSCKVTAMKCFLLELQVISLESGDASIHDTVENLIILANNSLSSNGNVGGGGS[letters of human IgG1 Fc omitted]", "notes": "also called IL15Rα-M/IL15 DS2"}, "B6": {"name": "Molecule S1 (Fc fusion)", "chain": "B5 chain with N184D", "notes": "also called Molecule R1 w/ N72D"}, "B7": {"name": "Molecule W1 (Fc fusion)", "chain": "ITCPPPMSVEHADIWVKSYSLYSRERYICNSGFKRKAGTSSLTECVLNKATNVAHWTTPSLKCIRDPALVHQRTESGCKECEELEEKNIKEFLQSFVHIVQMFINTSGGGGSNWVNVISDLKKIEDLIQSMHIDATLYTESDVHPSCKVTAMKCFLLELQVISLESGDASIHDTVENLIILANNSLSSNGNV[letters of human IgG1 Fc omitted]", "notes": "also called Molecule R1 w/o 2nd G4S"}, "B8": {"name": "Molecule X1 (Fc fusion)", "chain": "ITCPPPMSVEHADIWVKSYSLYSRERYICNSGFKRKAGTSSLTECVLNKATNVAHWTTPSLKCIRDPALVHQRTESGCKECEELEEKNIKEFLQSFVHIVQMFINTSGGGGSNWVNVISDLKKIEDLIQSMHIDATLYTESDVHPSCKVTAMKCFLLELQVISLESGDASIHDTVENLIILANNSLSSNGNV[letters of human IgG1 Fc with changes omitted]", "notes": "also called Molecule W1 w/ EFL3"}}, "note": "Substitutions are numbered along the chain they refer to. In names and notes the source's numbering stands."}
{"target": "T1, IL-2Rβ (CD122) (UniProt P14784 27-240, limits assumed)", "T1 construct": "also called IL-2R beta; IL-2 receptor beta", "T1 sequence (looked up)": "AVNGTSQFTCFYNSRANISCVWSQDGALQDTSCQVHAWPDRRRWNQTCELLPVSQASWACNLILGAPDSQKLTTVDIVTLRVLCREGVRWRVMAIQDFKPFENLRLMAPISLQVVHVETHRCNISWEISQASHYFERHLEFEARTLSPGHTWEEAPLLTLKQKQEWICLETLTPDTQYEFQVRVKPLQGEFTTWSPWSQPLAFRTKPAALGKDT", "test": "SPR (Biacore)", "text": "Surface plasmon resonance (SPR; Biacore system) was used to measure the dissociation constant (KD) between the IL-15/IL-15Rα-Fc fusion protein and IL-2Rβ. KD values represent a quantitative measurement of receptor affinity for the target ligand, where a lower KD value represents a higher affinity of the receptor (i.e., IL-2Rβ) for the target ligand (i.e., IL-15/IL-15Rα-Fc).", "units": {"Kd": "nM"}}
{"binder": "B1", "Kd": 3.08}
{"binder": "B2", "Kd": 3.15}
{"binder": "B3", "Kd": 2.84}
{"binder": "B4", "Kd": 2.65}
{"binder": "B5", "Kd": 2.85}
{"binder": "B6", "Kd": 0.6}
{"binder": "B7", "Kd": 3.42}
{"binder": "B8", "Kd": 3.23}
